From publication PMC3538594 (PLoS ONE, 2013)

Target: recombinant complex II (Thermus thermophilus, UniProt Q5SIC0)
Experiment: EPR signal of the [2Fe-2S] cluster (axial/rhombic transition)
Parameters: species or system T. thermophilus
Details: in the presence of 20 mM succinate, 6 µM rcII sample
Experimental: EPR spectra were recorded on a Bruker ElexSys X-band spectrometer fitted with an Oxford Instrument He-cryostat and temperature control system. Buffers used were either 50 mM MOPS at pH 7 or a mixture of 100 mM MOPS and 100 mM piperazine for the pH experiments. […] Additions of reducing agents were performed at room temperature followed by vortexing and freezing of the sample in liquid nitrogen within 5 min after addition.
Figure 5 Influence of redox mediators, buffer and inhibitors on EPR spectra of the recombinant complex II. […] The spectrum labeled ‘asc’ was obtained on a sample reduced by 5 mM ascorbate, ‘malate’ by addition of 20 mM malate, ‘dith’ by addition of 1 mM dithionite. Vertical lines indicate the position of the gx-signal. Spectra were recorded at a temperature of 50 K, microwave power of 64 mW and a modulation amplitude of 1 mT.
Protein concentration was 10 µM. Spectra were recorded at a temperature of 50 K, microwave power of 64 mW and a modulation amplitude of 1 mT.

Row | SMILES | concentration sufficient to obtain the axial signal [µM]
1 | O=C1C=CC(=O)C=C1 [p-BQ, p-benzoquinone] | 20
2 | O=C1C=CC(=O)c2ccccc21 [1,4-NQ, 1,4-naphthoquinone] | 10
